Results reported in PubChem BioAssay AID1030 (National Center for Advancing Translational Sciences (NCATS), 2008).
Among all 220,000 compounds or so, about 16,000 (7.3%) were called active. The inconclusive results got no clear call from the source; some entries with a clear call stand among them for comparison. Calls come from the whole dose curve; as a rule, active = well fitted inhibition curve with a large enough effect (not every such curve was filed as active); inconclusive = small, poorly fitted or top-dose-only effect, or another doubt; inactive = no such curve, though single readings can be large or run the other way. Where the call is inconclusive, the potency comes from a doubtful curve fit.

target: Aldehyde dehydrogenase 1A1 (Homo sapiens) (UniProt P00352); experiment: qHTS Assay for Inhibitors of Aldehyde Dehydrogenase 1 (ALDH1A1); conditions: Purified ALDH1A1, NADH fluorescence, propionaldehyde substrate; series mostly up to 75.3 µM
Potency is the fitted concentration of half-maximal effect; tags give direction and shape of the fitted curve.

UniProt P00352, sequence (P00352 whole entry, looked up): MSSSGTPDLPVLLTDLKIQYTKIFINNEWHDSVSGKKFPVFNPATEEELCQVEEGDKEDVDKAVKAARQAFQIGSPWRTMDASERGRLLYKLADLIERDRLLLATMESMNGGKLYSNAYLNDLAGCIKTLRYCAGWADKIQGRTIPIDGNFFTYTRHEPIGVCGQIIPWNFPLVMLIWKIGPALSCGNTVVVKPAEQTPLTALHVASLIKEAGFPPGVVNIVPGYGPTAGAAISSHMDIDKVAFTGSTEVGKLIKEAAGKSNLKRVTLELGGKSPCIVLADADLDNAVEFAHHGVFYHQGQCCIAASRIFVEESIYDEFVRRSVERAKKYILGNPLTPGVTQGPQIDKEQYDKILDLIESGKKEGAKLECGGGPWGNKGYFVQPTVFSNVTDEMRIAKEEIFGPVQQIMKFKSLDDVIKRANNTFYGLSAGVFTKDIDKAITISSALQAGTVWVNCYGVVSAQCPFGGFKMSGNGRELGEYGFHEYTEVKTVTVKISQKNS

Potency, active:
CCN(C(=O)COC(=O)/C=C/c1ccc(S(=O)(=O)N2CCc3ccccc32)cc1)C1CCS(=O)(=O)C1 (stereo not given) 5.01 µM
CCOC(=O)NC1(NCc2ccccc2)Oc2ccccc2O1 22.4 µM
COc1ccccc1-n1cnnc1SCC(=O)Nc1ncc(Cl)cc1Cl 4.47 µM

Potency, inactive:
CC(C)(C)OC(=O)N[C@@H](Cc1ccccc1)c1nnc(SCC(=O)O)o1
Cc1ccc(-c2nnn(CC(=O)N(c3ccccc3)C(C(=O)NCC3CCCO3)c3cccs3)n2)o1 (stereo not given)
Cn1c(SCC(=O)NCC2CCCO2)nnc1-c1cccc(NC(=O)c2ccccc2F)c1 (stereo not given)
O=[N+]([O-])c1ccc(COn2nnc3ccccc32)cc1
CNCC(=O)NCC(=O)N[C@@H](Cc1ccccc1)C(=O)N[C@@H](CC(C)C)C(=O)O
CNS(=O)(=O)c1ccc(NC(=O)C2CC(=O)N(c3ccc(Cl)cc3)C2)cc1 (stereo not given)
CC1C(c2ccccc2)=[N+]([O-])C2(CCCCC2)N1O (stereo not given)
COc1ccc2nc(SCC(=O)NC(C)(C)C)[nH]c2c1

Potency, inconclusive:
O=C(CN1C(=O)NC2(CCOc3ccccc32)C1=O)Nc1ccc2c(c1)OCCO2 (stereo not given) 39.8 µM [inhibitor, single point]
COc1cccc(N2CCN(CC(=O)Nc3nc4c(s3)CC(C)CC4)CC2)c1 (stereo not given) 39.8 µM [inhibitor, single point]
O=C(Cc1ccccc1F)OCC(=O)N1CCN(C(=O)c2ccco2)CC1 18.9 µM [inhibitor, partial curve, poor fit]
COCCNC(=O)CSc1nc2ccc(N3CCOCC3)cc2c(=O)n1CCc1ccccc1 28.2 µM [inhibitor, partial curve]
O=C(Nc1ccc(S(=O)(=O)N2CCCC2)cc1)c1ccc2c(=O)n3c(nc2c1)CCCCC3 2.24 µM [inhibitor, full curve]
COC(=O)c1ccc(C(NC(=O)OCc2ccccc2)/C(C)=C/[C@@H](C)C(=O)Nc2ccc(OC)cc2)cc1 (stereo not given in full) 44.7 µM [inhibitor, single point]
Cc1ccsc1C(=O)N(c1nc2ccccc2s1)c1c(C)cccc1C 39.8 µM [inhibitor, single point]
COc1cc(/C=C2\C(=O)N(c3ccc(NC(C)=O)cc3)N=C2c2ccccc2)ccc1O 31.6 µM [inhibitor, partial curve]
O=c1c(Cl)c(NCCCO)cnn1-c1nc2ccccc2[nH]1 39.8 µM [inhibitor, single point]
